Results reported in PubChem BioAssay AID1671194 (National Center for Advancing Translational Sciences (NCATS), 2021).
Out of some 140,000 compounds screened, about 240 (0.17%) were called active. The inconclusive results got no clear call from the source; some entries with a clear call stand among them for comparison. Calls follow the shape of the dose curve; as a rule, active = well fitted inhibition curve with a large enough effect; inconclusive = small, poorly fitted or top-dose-only effect; inactive = no such curve, though single readings can be large or run the other way. Where the call is inconclusive, the potency comes from a doubtful curve fit.

Assay: Primary qHTS assay for inhibitors of alpha-synuclein gene (SNCA) expression; also: nearly all actives have a fitted effect of over 45% in size
Settings: HEK-293 SNCA-luciferase knock-in, luminescence, 24 h; series mostly up to 57.2 µM
Potency is read from the fitted curve at half-maximal effect; tags tell the direction and shape of the fitted curve.

Potency, inconclusive:
FC(F)(F)c1ccc(-c2cnc([C@@H]3COCCN3Cc3ccccn3)[nH]2)cc1 56.2 µM [inhibitor, single point]
c1coc(-c2nc3nccc(-c4ccc5c(c4)OCCCO5)n3n2)c1 14.1 µM [inhibitor, single point]
CN(C(=O)CSc1nc2ccc(NC(=O)c3ccco3)cc2s1)c1ccccc1 39.8 µM [inhibitor, single point]
N#Cc1cccc(C(=O)NC2CCCN(c3cc(-c4ccc(F)cc4)[nH]n3)C2)c1 (stereo not drawn) 39.8 µM [inhibitor, single point]
Cc1noc2c(-c3cnn(C)c3)cc(-c3cccs3)nc12 12.6 µM [inhibitor, single point]
O=C(NCc1ccc(C(F)(F)F)cc1)C1CCCN1Cc1ccc(-c2cncnc2)cc1 (stereo not drawn) 35.5 µM [inhibitor, single point]
COc1ccc(-c2nc(C3CC3)nc3c2CN(C(=O)c2ccc(C(F)(F)F)cc2)CC3)cc1 7.94 µM [inhibitor, full curve, poor fit]
CC1=C[C@@H](CN2C(=O)C(C)=C(C)C2=O)[C@H](C(C)C)C[C@H]1Cc1nc2c(C)cccc2[nH]1 56.2 µM [inhibitor, single point]
O=C(CN1C(=O)NC(c2ccc(Cl)cc2)C2=C1COC2=O)Nc1cccc(F)c1 (stereo not drawn) 39.8 µM [inhibitor, single point]
CCOC(=O)C1CCCN(C(=O)C2CC(c3ccc(CC)cc3)CN(C(C)=O)C2)C1 (stereo not drawn) 28.2 µM [inhibitor, single point]
O=C(c1cccc(F)c1)N1CCC2(CC1)CN(c1ncccn1)C2 7.94 µM [inhibitor, single point]
CCOC(=O)c1cnc2c(OC)cccc2c1N1CCN(c2ccccc2F)CC1 14.1 µM [inhibitor, partial curve, poor fit]
CCOc1ccc(N(CC)S(=O)(=O)N2CCCC(C(=O)NCc3ccccc3OCC)C2)cc1 (stereo not drawn) 39.8 µM [inhibitor, single point]
O=C(COc1ccccc1)NCC(=O)N1CCCCCCNC(=O)CC1c1ccccc1 (stereo not drawn) 7.08 µM [inhibitor, full curve, poor fit]
COc1ccccc1-c1cccc(CN2CCCC(C(=O)NCCCc3ccccc3)C2)c1 (stereo not drawn) 39.8 µM [inhibitor, single point]
O=C(c1ccccc1F)N1CCCC2(C1)C(=NC1CCCCC1)NC(=O)N2c1cccnc1 (stereo not drawn) 1.58 µM [inhibitor, full curve, poor fit]
O=C(Nc1cccc(F)c1)C1CCN(c2nc3ccccc3nc2C(F)(F)F)CC1 8.91 µM [inhibitor, partial curve, poor fit]
Cc1ccc(-n2c3c(c(=O)[nH]c2=O)C(NC(=O)C(C)(C)C)(C(F)(F)F)C(=O)N3)cc1 (stereo not drawn) 7.08 µM [inhibitor, single point]
CCOC(=O)C1=C(CN2CCN(c3ccc(Cl)cc3)CC2)NC(=O)NC1c1ccc(F)cc1 (stereo not drawn) 31.6 µM [inhibitor, partial curve]
O=S(=O)(Cc1ccccc1F)N1CCCC(Cc2noc(C3CC3)n2)C1 (stereo not drawn) 39.8 µM [inhibitor, partial curve, poor fit]
COc1ccc(NC(=O)CSc2nc(-c3cccc(C)c3)[nH]c2-c2ccccc2)cc1OC 39.8 µM [inhibitor, single point]
COc1ccc2c(c1)CCN=C2C[C@H]1CN(C(=O)NC(C)C)CC[C@H]1CC(=O)O 15.8 µM [inhibitor, partial curve, poor fit]
Cc1cccn2c(=O)c3cc(C#N)c(=O)n(-c4nnc(SCc5ccc(Cl)cc5)s4)c3nc12 7.08 µM [inhibitor, single point]
Cc1ccccc1CN1Cc2nc(-c3cnn(Cc4ccccc4)c3)ccc2OCC1=O 35.5 µM [inhibitor, partial curve, poor fit]
CCOc1ccc(Nc2c(S(=O)(=O)c3ccccc3)cnc3ccc(F)cc23)cc1 28.2 µM [inhibitor, partial curve, poor fit]
Cc1cc(CNC(=O)c2cc(-c3ccccc3F)cc3c2OCCN3C)no1 56.2 µM [inhibitor, partial curve, poor fit]
CC(=O)N1CCc2cc(Br)cc(S(=O)(=O)CCC(=O)N3CCN(c4ccccc4Cl)CC3)c21 28.2 µM [inhibitor, single point]
O=C(NCC1CC1)c1cc(-c2cccc(C(F)(F)F)c2)c2cccn2n1 39.8 µM [inhibitor, single point]
C[C@@]1(O)CCN(C(=O)c2ccc(N3CCCC3=O)cc2)C[C@@H]1O 39.8 µM [inhibitor, single point]
COc1ccc(C(=O)N2CCC(C3CCNC3)CC2)cc1F (stereo not drawn) 39.8 µM [inhibitor, partial curve, poor fit]
CN1CCN(Cc2cn(Cc3ccccc3)nc2-c2ccc3c(c2)OCO3)CC1 39.8 µM [inhibitor, single point]
Cc1csc(NC(=O)c2nc(C(O)c3ccccc3)oc2C)n1 (stereo not drawn) 10 µM [inhibitor, single point]
Fc1ccc(-c2cnc([C@@H]3COCCN3Cc3ccccc3F)[nH]2)c(F)c1 28.2 µM [inhibitor, single point]
COc1ccc(-c2cc(C(=O)NCc3c(C)cc(C)[nH]c3=O)c3c(c2)N(C(C)C)CCO3)cc1OC 25.1 µM [inhibitor, single point]
COc1ccc(CCNC(=O)c2cn3cc(-c4ccc(OC)cc4)sc3n2)cc1 0.891 µM [inhibitor, full curve, poor fit]
Cc1ccc(-c2nocc2CCC(=O)NCC2CCCO2)cc1 (stereo not drawn) 39.8 µM [inhibitor, single point]
O=C1CSC2(C(=O)N(Cc3cccc(F)c3)c3ccccc32)N1c1cccc(C(F)(F)F)c1 (stereo not drawn) 39.8 µM [inhibitor, single point]
COc1ccc(Nc2cc(C(=O)NCCCN3CCN(c4ccccc4F)CC3)c3ccccc3n2)c(OC)c1 35.5 µM [inhibitor, single point]
CCC(Oc1ccc(F)cc1)C(=O)Nc1c(C(=O)c2ccc(C)cc2)oc2ccccc12 (stereo not drawn) 2.24 µM [inhibitor, partial curve, poor fit]
CCCS(=O)(=O)c1c(S(=O)(=O)CCC)c2cc(C(C)(C)C)ccn2c1C(=O)c1ccccc1 22.4 µM [inhibitor, partial curve, poor fit]
CN(CCc1ccccc1)C(=O)CCC1CCN(c2cc(NC3CC3)ncn2)CC1 39.8 µM [inhibitor, single point]
COc1ccc(NC(=O)Cn2cc(S(=O)(=O)c3ccccc3)c(=O)c3cc4c(cc32)OCO4)cc1 1.41 µM [inhibitor, full curve]
CON=C(C(=O)N[C@@H]1C(=O)N2C(C(=O)OCOC(=O)C(C)(C)C)=C(C=Cc3scnc3C)CS[C@H]12)c1csc(N)n1 6.81 µM [inhibitor, full curve, poor fit]

Potency, inactive:
O=C(N[C@@H](Cn1cc(F)c(=O)[nH]c1=O)C(=O)O)c1cccs1
CCc1ccc(C2=CC(c3cccc(OC)c3OC)n3c(nc4ccccc43)N2)cc1 (stereo not drawn)
O=C(c1ccc2c(c1)OCO2)N1CCC(c2nnc3n2CCNC3)CC1
Cc1oc(C(O)c2cccc(O)c2)nc1C(=O)Nc1ccc2c(c1)CNC2=O (stereo not drawn)
CN1CCN(c2nc3c(c(=O)[nH]2)CCN(Cc2ccc(C#N)cc2)CC3)CC1
Cc1cc(F)ccc1OCC(=O)c1ccc2c(c1)N(C(C)C(=O)NCc1ccc(F)cc1)C(=O)CO2 (stereo not drawn)
CCOC(=O)C1CCN(C(=O)c2cn3ccnc(-c4ccc(OC)cc4)c3n2)CC1
c1cn(-c2ccc(-c3cscn3)cc2)c(-c2cc3n(n2)CCCNC3)n1
CC(C)CNC(=O)c1nc2cccnc2n(CCc2ccccc2)c1=O
CCCN(C)c1nccnc1OC1CCN(C(=O)CC(C)C)C1 (stereo not drawn)
COc1cccc(-c2ccccc2NC(=O)C2CCN(Cc3cc(OC)ccc3O)CC2)c1
C[S+](=O)([O-])N1CCc2nc(C3CC3)nc(-c3ccc(Cl)cc3)c2C1
FC1(F)C[C@@H](c2nnc(C3CC3)o2)N(C2CCOCC2)C1
COC[C@@H]1CN(C(=O)CCc2ccccc2)C[C@H]1c1ccccn1
Cc1cccc(C)c1NC(=O)Cn1c(=O)n(-c2ccccc2)c(=O)c2c1cc(C)n2C
COc1cccc(CN2CCCN(S(=O)(=O)c3ccccc3)CCC(=O)NCC2)c1OC
Cc1ccc(-c2ccc(=O)n(CCC(=O)NCCc3ccccc3)n2)cc1
COc1ccccc1CN(C)C1CCc2ccccc21 (stereo not drawn)
COc1ccc(-c2nc(N3CCOC[C@H]3C)cc3c2CN(C(C)C)C3=O)cc1

Potency, active:
CC(C)C[C@@H](C=O)NC(=O)[C@H](CC(C)C)NC(=O)[C@H](CC(C)C)NC(=O)OCc1ccccc1 0.607 µM
